Consider three molecules from patent publication US20220056135A1 (OSE IMMUNOTHERAPEUTICS, published 2022).

Assay [1] addresses T1, Bicki anti-PD1VL-Sirpa, chimeric anti-PD1 antibody (heavy chain SEQ ID NO: 53, light chain SEQ ID NO: 54) … (human, UniProt P78324 31-373).
T1 construct: Antibody-SIRPa fusion protein; also called anti-PD1VL-SIRPa antibody chimeric; not shown: peptide linker
The experiment in a line: ELISA, human recombinant PD-1 immobilised, detection with anti-human Fc-peroxidase, TMB. As to the method:
(§1) Revelation was performed with an anti-human Fc antibody coupled to peroxidase. Colorimetry was determined at 450 nm using TMB substrate.

The target in assay [2] is T2, Bicki anti-PD1VH-Sirpa, chimeric anti-PD1 antibody (heavy chain SEQ ID NO: 53, light chain SEQ ID NO: 54) … (human, UniProt P78324 31-373).
T2 construct: Antibody-SIRPa fusion protein; also called anti-PD1VH-SIRPa antibody chimeric; not shown: peptide linker
Described as above. As to the method:
as §1

Assay [3] has as its target T3, SIRPa Fc (human ( for this reagent), UniProt P78324).
T3 construct: also called SIRPa-Fc molecule
Kind of assay: flow cytometry on Jurkat cells, anti IgG-PE; ratio of the median fluorescence on PD-1+CD47+ cells over that on CD47+ cells.

Assay [4] concerns the target T1, Bicki anti-PD1VL-Sirpa, chimeric …. Kind of assay: competition ELISA: PD-L1 immobilised, antibody mixed with biotinylated PD-1 at 0.6 µg/mL, streptavidin-peroxidase; blocked ligand PD-L1. As for the experimental part:
(§2) Competitive ELISA assay was performed by PD-1:PD-L1 Inhibitor Screening ELISA Assay Pair (AcroBiosystems; USA; reference EP-101). In this assay, recombinant hPDL1 was immobilized on plastic at 2 μg/ml in PBS pH 7.4 buffer.

For assay [5], the target named is T2, Bicki anti-PD1VH-Sirpa, chimeric …. The description is as above. As for the experimental part:
as §2

B1: recombinant hPD1 (Sino Biologicals, reference 10377-H08H) (receptor)
chain: not shown
notes: also called Human recombinant PD-1 protein; PD1-His recombinant protein
In the case of B1, the binding result in assay [1] and in assay [2] was “binds” throughout.

B2: PD-1 on Jurkat cells (PD-1+ CD47+ Jurkat cells; Jurkat stably expressing PD-1) (receptor)
chain: not shown
notes: whole, on cells; also called PD-1 receptor
Take B2: in assay [3], the binding result was “no binding (tested: 4.5 nM)”.

B3: biotinylated Human PD1 (AcroBiosystems, reference EP-101) (receptor)
chain: not shown
modifications: biotinylated (site not stated)
notes: also called biotinylated recombinant human PD-1; rec PD1
B3: the binding result in assay [4] and in assay [5] was “binds” each time.
